This experiment concerns the target Baculoviral IAP repeat-containing protein 2 (Homo sapiens) (UniProt Q13490). In words: SMAC mimetics displacing peptide from cIAP1 – biochemical, SAR follow-up (AID 1508599). Conditions: cIAP1 BIR3 / rhodamine-SMAC peptide fluorescence polarization.

Some entries of the source have several records that differ or are many. The list is limited to them. There may be further records. Results that share an entry are repeated measurements (runs, samples, wells, individuals or studies). Marks in square brackets tell the records apart. The letters are not those of the source and start again with each entry.

The IC50 is the concentration at which inhibition is half-maximal. Read a high IC50 as a need for much substance.

Chain of UniProt Q13490 (Q13490 whole entry, looked up): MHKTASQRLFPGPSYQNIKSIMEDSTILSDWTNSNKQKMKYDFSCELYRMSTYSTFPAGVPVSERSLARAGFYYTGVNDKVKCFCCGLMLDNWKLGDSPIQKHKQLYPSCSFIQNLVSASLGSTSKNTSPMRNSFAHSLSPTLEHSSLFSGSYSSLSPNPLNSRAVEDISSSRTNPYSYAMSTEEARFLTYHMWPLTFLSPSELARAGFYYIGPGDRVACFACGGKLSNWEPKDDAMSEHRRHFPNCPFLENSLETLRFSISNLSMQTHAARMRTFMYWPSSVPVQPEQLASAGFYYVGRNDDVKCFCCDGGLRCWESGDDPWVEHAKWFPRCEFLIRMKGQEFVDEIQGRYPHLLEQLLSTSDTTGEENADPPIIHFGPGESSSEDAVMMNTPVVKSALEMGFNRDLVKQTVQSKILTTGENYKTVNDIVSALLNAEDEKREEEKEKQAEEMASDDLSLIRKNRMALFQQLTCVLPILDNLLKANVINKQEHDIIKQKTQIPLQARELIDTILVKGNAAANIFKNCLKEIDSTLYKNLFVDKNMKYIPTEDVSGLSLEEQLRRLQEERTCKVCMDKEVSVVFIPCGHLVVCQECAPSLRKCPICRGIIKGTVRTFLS

As to `CN[C@@H](C)C(=O)N[C@H]1Cc2ccc(O)cc2[C@H]2CC(C)(C)C(C(=O)N[C@@H]3CCCc4ccccc43)N2C1=O` (stereo partly specified), the IC50 was 8.92 µM [sample A] and 114 nM [sample B].

The values above are taken from PubChem BioAssay AID1508599 (Sanford-Burnham Center for Chemical Genomics, 2020).
